The source of these data is a collection of fitness landscapes (doi:10.1126/science.1257360).

This is one part of the list.

The labels stand for the following.
B1: PhoQ; a variant is named by its letters at X, in order, P23837 (parent)
chain: MKKLLRLFFPLSLRVRFLLATAAVVLVLSLAYGMVALIGYSVSFDKTTFRLLRGESNLFYTLAKWENNKLHVELPENIDKQSPTMTLIYDENGQLLWAQRDVPWLMKMIQPDWLKSNGFHEIEADVNDTSLLLSGDHSIQQQLQEVREDDDDAEMTHSVAVNVYPATSRMPKLTIVVVDTIPVELKSSYMVWSWFIYVLSANLLLVIPLLWVAAWWSLRPIEALAKEVRELEEHNRELLNPATTRELTSLVRNLNRLLKSERERYDKYRTTLTDLTHSLKTPLXXLQXXLRSLRSEKMSVSDAEPVMLEQISRISQQIGYYLHRASMRGGTLLSRELHPVAPLLDNLTSALNKVYQRKGVNISLDISPEISFVGEQNDFVEVMGNVLDNACKYCLEFVEISARQTDEHLYIVVEDDGPGIPLSKREVIFDRGQRVDTLRPGQGVGLAVAREITEQYEGKIVAGESMLGGARMEVIFGRQHSAPKDE

In the test the parent is B1. As to the kind of experiment: enrichment ratio after two sorts for PhoP signalling (ratio (wild type AVST 3.29)); higher = more functional. To be noted: with PhoP (E. coli).
For PDQH, the enrichment ratio is no more than 0.25.
As to DKQF, the enrichment ratio was no more than 0.25.
The result for HQSL reads no more than 0.25.
Consider YAKR, for which the enrichment ratio is no more than 0.25.
The result for RKWH reads no more than 0.25; that for HCYN, no more than 0.25; that for PFYQ, 3.49.
In the case of KANG it was no more than 0.25; in that of GDYA, no more than 0.25; in that of HVYL, no more than 0.25.
With EVYK, the enrichment ratio was no more than 0.25.
For IEHH, the enrichment ratio was no more than 0.25.
The result for QNWF reads no more than 0.25; that for PHKN, no more than 0.25.
In the case of ITAD it was no more than 0.25.
Regarding ATDA, the enrichment ratio was no more than 0.25.
The result for VRQV reads no more than 0.25; that for STQD, no more than 0.25.
In the case of IMFA it was no more than 0.25; in that of SIDL, no more than 0.25; in that of YPLM, no more than 0.25.
For FLYY, the enrichment ratio is no more than 0.25.
As to HYDF, the enrichment ratio is 7.09.
In the case of QQGL it was no more than 0.25; in that of SWHL, 0.549.
For the variant QCIW, the enrichment ratio is no more than 0.25.
The result for LFVF reads no more than 0.25; that for HQCT, no more than 0.25; that for VWNK, no more than 0.25.
In the case of IQPL it was no more than 0.25; in that of VITY, no more than 0.25; in that of ISGP, no more than 0.25.
FLEE: the enrichment ratio is no more than 0.25.
Take QVYD: the enrichment ratio is no more than 0.25.
The result for HWST reads no more than 0.25.
The result for KQHH reads no more than 0.25; that for MRGH, no more than 0.25; that for NQTH, no more than 0.25.
In the case of HLML it was no more than 0.25; in that of DFGI, no more than 0.25; in that of YKHV, no more than 0.25.
As for HSTN, the enrichment ratio was no more than 0.25.
For the variant ELCF, the enrichment ratio was 3.34.
Regarding MLIN, the enrichment ratio is no more than 0.25.
With SNNH, the enrichment ratio is 0.834.
The result for EIIR reads no more than 0.25; that for EFPG, no more than 0.25.
With HDGL, the enrichment ratio was no more than 0.25.
The result for QQYD reads no more than 0.25; that for PGLY, no more than 0.25; that for TDFF, no more than 0.25.
In the case of LTRV it was no more than 0.25; in that of MCVG, no more than 0.25; in that of GMSF, 0.7.
The result for APQP reads no more than 0.25; that for VFMC, no more than 0.25.
Regarding PEGP, the enrichment ratio was no more than 0.25.
ECMP: the enrichment ratio was no more than 0.25.
In the case of YRHM it was no more than 0.25.
In the case of PRTM it was no more than 0.25; in that of VSYD, no more than 0.25.
The result for SNEK reads no more than 0.25; that for FGNY, no more than 0.25; that for LKIN, no more than 0.25.
As for EFGW, the enrichment ratio is no more than 0.25.
Consider WQQP, for which the enrichment ratio is no more than 0.25.
In the case of TAEP it was 0.518; in that of RGTV, no more than 0.25.
The result for QSDY reads 14.5; that for LPCM, no more than 0.25; that for YPYP, no more than 0.25.
In the case of NPPS it was no more than 0.25; in that of DRRA, 0.527; in that of HSVW, no more than 0.25.
With GLFN, the enrichment ratio is no more than 0.25.
Consider PETC, for which the enrichment ratio was no more than 0.25.
The result for FENP reads no more than 0.25; that for HPST, no more than 0.25; that for LSQD, no more than 0.25.
The result for DALR reads no more than 0.25; that for RFIP, no more than 0.25.
In the case of MTGV it was 1.48.
LNTI: the enrichment ratio is no more than 0.25.
In the case of DAWV it was no more than 0.25; in that of VDDT, no more than 0.25; in that of YTYD, no more than 0.25.
In the case of SHPA it was no more than 0.25; in that of HQIM, no more than 0.25.
In the case of YRGL, the enrichment ratio was no more than 0.25.
In the case of HKWC it was no more than 0.25.
In the case of MRHL it was no more than 0.25; in that of KSSI, no more than 0.25.
Consider YHNV, for which the enrichment ratio was no more than 0.25.
In the case of MGCN it was 5.8; in that of NWTD, no more than 0.25.
In the case of TWNP it was no more than 0.25; in that of EVGF, no more than 0.25.
The result for MNDC reads no more than 0.25; that for WTMP, no more than 0.25.
Regarding TYSE, the enrichment ratio was no more than 0.25.
Regarding IIYW, the enrichment ratio is no more than 0.25.
In the case of SLSW it was 4.5; in that of LEFK, no more than 0.25.
The result for DDRA reads no more than 0.25.
In the case of FYST it was no more than 0.25.
As for QRCH, the enrichment ratio is no more than 0.25.
In the case of IVKA it was no more than 0.25; in that of QYGK, no more than 0.25; in that of FGCV, 5.46.
In the case of WYRN it was no more than 0.25.
The result for NMGW reads no more than 0.25.
Turning to IFIY, the enrichment ratio was no more than 0.25.
As for SRLD, the enrichment ratio was no more than 0.25.
Regarding PIRK, the enrichment ratio is no more than 0.25.
In the case of HFCQ it was no more than 0.25.
In the case of TRQH it was no more than 0.25; in that of HCLY, no more than 0.25; in that of GMIM, 2.67.
In the case of PKHG it was no more than 0.25; in that of ITTY, no more than 0.25.
For VNWN, the enrichment ratio was no more than 0.25.
For RSTH, the enrichment ratio is no more than 0.25.
In the case of AKEM it was no more than 0.25.
Take PNGA: the enrichment ratio is no more than 0.25.
MLWQ: the enrichment ratio is no more than 0.25.
On to GVPE, for which the enrichment ratio is no more than 0.25.
For the variant DNIM, the enrichment ratio was no more than 0.25.
The result for FTHD reads no more than 0.25.
The result for WIHI reads no more than 0.25; that for VLHN, no more than 0.25.
With WQWP, the enrichment ratio was no more than 0.25.
The result for VCDP reads no more than 0.25; that for FWTM, no more than 0.25.
In the case of YMDC it was no more than 0.25.
The result for IEEE reads no more than 0.25; that for FGMI, 11.8.
As for TNIY, the enrichment ratio is no more than 0.25.
In the case of EETW it was no more than 0.25; in that of VECI, 3.1; in that of MGNT, no more than 0.25.
As to NCGH, the enrichment ratio is no more than 0.25.
The result for MHTN reads no more than 0.25; that for QPIT, no more than 0.25.
Turning to LYVF, the enrichment ratio is no more than 0.25.
The result for DGNY reads no more than 0.25.
The result for IFAE reads no more than 0.25; that for KAEH, no more than 0.25.
Turning to YSKD, the enrichment ratio is no more than 0.25.
In the case of TQKF it was no more than 0.25; in that of IGWS, no more than 0.25.
In the case of GNKM it was no more than 0.25; in that of EHVA, no more than 0.25; in that of PMDR, no more than 0.25.
